Hit rate of the full screen: of about 330,000 compounds, about 1,700 (0.52%) were called active. The inconclusive results got no clear call from the source; some entries with a clear call stand among them for comparison. The call rests on the fitted dose curve; in most records, active means well fitted inhibition curve with a large enough effect; inconclusive means small, poorly fitted or top-dose-only effect; inactive means no such curve, though single readings can be large or run the other way. A potency beside an inconclusive call is a rough fit, not a confirmed value.
molecular target: Beta-lactamase (Escherichia coli (strain K12)) (UniProt P00811); test: qHTS Inhibitors of AmpC Beta-Lactamase (assay without detergent); settings: AmpC nitrocefin hydrolysis, absorbance 480 nm, 0.0001% Triton; activity change, negative = inhibition: at 57.1 µM (top of the series) unless noted; further: nearly all actives have a fitted effect of over 20% in size
In short: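 20 mM phosphate pH 7.0 + 0.01% (detergent screen) or 0.0001% Triton X-100; 5.3 nM AmpC reagent; cpd preinc 15 min RT; nitrocefin (800 uM stock) to start; A480 q20 s × 4 min; Activity was normalised to no-enzyme and no-compound control wells.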
Potency means the concentration at half of the fitted maximal effect; tags describe the fitted curve by direction and shape.

Chain of UniProt P00811 (P00811 whole entry, looked up): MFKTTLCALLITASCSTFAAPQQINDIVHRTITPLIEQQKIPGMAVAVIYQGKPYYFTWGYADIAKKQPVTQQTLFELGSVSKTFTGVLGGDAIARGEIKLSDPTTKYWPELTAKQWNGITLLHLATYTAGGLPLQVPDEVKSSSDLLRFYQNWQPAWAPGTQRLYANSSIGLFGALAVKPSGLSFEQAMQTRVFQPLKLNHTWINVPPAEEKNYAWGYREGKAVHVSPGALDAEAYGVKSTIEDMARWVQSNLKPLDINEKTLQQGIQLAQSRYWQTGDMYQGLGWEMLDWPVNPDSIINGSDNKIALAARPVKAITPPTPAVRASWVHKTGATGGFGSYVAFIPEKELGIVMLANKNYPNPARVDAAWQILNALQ

Q: Which “activity change, negative = inhibition” value does the source give for `COc1cc(C(=O)COC(=O)c2c(C)noc2C)cc(OC)c1OC` here?
A: inactive: -1.88%

Q: For `CCN(CC)CCCNC(=O)/C=C/C(=O)O`, which “activity change, negative = inhibition” value is on record?
A: inactive: 0.472%

Q: How did the “activity change, negative = inhibition” value turn out when `COc1ccc(-c2nn(C)c(=O)c3ccccc23)cc1NC(=O)COc1ccc(C)cc1` was run?
A: inactive: -28.5%

Q: How did the Potency turn out when `CSc1cccc(NC(=O)COc2ccccc2C)c1` was run?
A: inconclusive: 25.1 µM [inhibitor, partial curve]

Q: Which Potency does the source give for `Oc1ccc(/C=N/N(Cc2ccccc2)c2ccccc2)c(O)c1O` here?
A: active: 17.8 µM

Q: `Cc1ccnc(NC(=O)CNC(=O)c2ccco2)c1` was tested. Which Potency did it give?
A: inconclusive: 39.8 µM [inhibitor, single point]

Q: Which Potency does the source give for `CCOC(=O)c1nc(NCc2cccnc2)c2ccccc2n1` here?
A: inconclusive: 3.55 µM [inhibitor, partial curve, poor fit]

Q: Which Potency does the source give for `CSc1nc(Oc2ccc3ccccc3c2)c2ccccc2n1` here?
A: inconclusive: 6.31 µM [inhibitor, single point]

Q: With `CCOC(=O)c1c(-c2ccc(Cl)cc2)c(C#N)c(=O)n(N)c1N` as the compound, how does the Potency read?
A: inconclusive: 0.631 µM [inhibitor, partial curve, poor fit]

Q: `O=C(COC(=O)c1nc(Cl)ccc1Cl)Nc1ccc(Cl)cc1` was tested. Which Potency did it give?
A: inconclusive: 10 µM [inhibitor, partial curve]

Q: With `COCCN(CCOC)C(=O)C1CCN(c2ccc(S(=O)(=O)N3CCOCC3)cc2[N+](=O)[O-])CC1` as the compound, how does the “activity change, negative = inhibition” value read?
A: inactive: 105%

Q: How did the “activity change, negative = inhibition” value turn out when `CCCCn1c(CN2CCN(C(=O)c3ccco3)CC2)nc2c1c(=O)n(C)c(=O)n2C` was run?
A: inactive: 40.9%

Q: For `CCCn1c(C)cc(C(=O)COC(=O)c2cc(S(=O)(=O)NCC(C)C)c(Cl)cc2Cl)c1C`, which “activity change, negative = inhibition” value is on record?
A: inactive: -28.1%

Q: With `COc1ccc(OC)c(N2C(=O)/C(=C/c3ccco3)C(=O)NC2=S)c1` as the compound, how does the Potency read?
A: active: 17.8 µM

Q: `Cc1ccc(NS(=O)(=O)c2ccc(C)c(NC(=O)COc3ccc4ccccc4c3)c2)c(C)c1` was tested. Which Potency did it give?
A: inconclusive: 2.82 µM [inhibitor, full curve, poor fit]

Q: For `C#CCOCCOCCOCCNc1nc(N2CCN(C(=O)CCCCCCCCCCNC(=O)[C@H]([C@@H](C)CC)n3cc(CCCCCN)nn3)CC2)nc(N2CCN(C(=O)CCCCCCCCCCNC(=O)[C@@H]([C@H](C)CC)n3cc(CCCCCN)nn3)CC2)n1`, which “activity change, negative = inhibition” value is on record?
A: inactive: 359%

Q: Which Potency does the source give for `O=C(COC(=O)c1nc(Cl)c(Cl)c(Cl)c1Cl)c1ccc[nH]1` here?
A: inconclusive: 39.8 µM [inhibitor, single point]

Q: `Cc1ccc(-c2cc(-c3ccccc3)[nH]c(=S)c2C#N)cc1` was tested. Which Potency did it give?
A: inconclusive: 3.98 µM [inhibitor, single point]

Q: Which Potency does the source give for `CCCCCC(=O)Nc1cc(S(=O)(=O)N2CCOCC2)ccc1Oc1ccc(OCC)cc1` here?
A: inconclusive: 39.8 µM [inhibitor, single point]

Q: For `N#CCC(=O)N/N=C\c1ccc(OC/C=C/c2ccccc2)cc1`, which Potency is on record?
A: inconclusive: 12.6 µM [inhibitor, partial curve]

Q: How did the Potency turn out when `Cc1ccc(C(=O)NCc2ccco2)cc1S(=O)(=O)N1CCCC1` was run?
A: inconclusive: 25.1 µM [inhibitor, single point]

Q: `O=C(COC(=O)c1cccs1)NC1CCCCC1` was tested. Which “activity change, negative = inhibition” value did it give?
A: inactive: -14.2%

Q: For `N/C(=N\OC(=O)N1CCOCC1)c1ccccc1`, which “activity change, negative = inhibition” value is on record?
A: inactive: -19.9%

Q: For `O=C(CSc1n[nH]c(-c2ccco2)n1)N1c2ccccc2Sc2ccccc21`, which “activity change, negative = inhibition” value is on record?
A: inactive: -44.6%

Q: With `CCc1ccc(Nc2nc(N)nc(CSc3nnnn3-c3ccccc3)n2)cc1` as the compound, how does the Potency read?
A: inconclusive: 3.16 µM [inhibitor, full curve, poor fit]

Q: How did the Potency turn out when `N#Cc1ccc2c(c1)C[C@]1(CCCCN3C(=O)c4ccccc4C3=O)Oc3c(c(=O)oc4ccccc34)C2O1` was run?
A: inconclusive: 8.91 µM [inhibitor, single point]

Q: With `CCOC(=O)CSc1ncc(OC)c(=O)[nH]1` as the compound, how does the Potency read?
A: inconclusive: 0.199 µM [inhibitor, full curve, poor fit]

Q: With `O=C(CSCc1ccco1)c1ccc(Cl)s1` as the compound, how does the Potency read?
A: inconclusive: 39.8 µM [inhibitor, single point]

Q: With `COc1ccc(CCNC(=O)C2CCN(S(C)(=O)=O)CC2)cc1OC` as the compound, how does the Potency read?
A: inconclusive: 0.708 µM [inhibitor, partial curve, poor fit]

Q: `O=C(Nc1ccc(F)cc1F)c1ccc2nc(N3CCOCC3)sc2c1` was tested. Which “activity change, negative = inhibition” value did it give?
A: inactive: -12.1%

Q: With `CN(C)c1ccc(C(CNC(=O)c2ccc(F)cc2)c2c[nH]c3ccccc23)cc1` (centres undefined) as the compound, how does the Potency read?
A: active: 14.1 µM

Q: For `Cc1ccc(C2C(C(=O)c3cc4ccccc4o3)=C(O)C(=O)N2CCN2CCOCC2)o1` (centres undefined), which Potency is on record?
A: inconclusive: 8.91 µM [inhibitor, single point]

Q: For `Cc1cc2nc(C3CCCN(C(=S)Nc4ccccc4C)C3)[nH]c2cc1C` (centres undefined), which “activity change, negative = inhibition” value is on record?
A: inactive: 9.01%

Q: How did the Potency turn out when `Cc1cccc(NC(=S)N=Nc2c(O)[nH]c3ccccc23)c1` was run?
A: active: 31.6 µM

Q: Which Potency does the source give for `Cc1ccc(NC2=CC(=O)CC(c3ccc(Cl)cc3)C2)cc1` (centres undefined) here?
A: inconclusive: 15.8 µM [inhibitor, partial curve]

Q: Which “activity change, negative = inhibition” value does the source give for `O=C(Nc1sc(-c2ccccc2)cc1C(=O)O)c1ccccc1` here?
A: inactive: -30.9%

Q: `COc1ccc(CNC(=O)c2ccc3c(c2)N(C)C(=O)CS3=O)cc1` (centres undefined) was tested. Which Potency did it give?
A: inconclusive: 31.6 µM [inhibitor, single point]

Q: How did the Potency turn out when `CCCCn1c(NCc2ccccc2O)nc2ccccc21` was run?
A: inconclusive: 0.316 µM [inhibitor, full curve, poor fit]

Q: With `CC(C(=O)Nc1ccc(N(C)C)cc1)N1C(=O)c2ccccc2S1(=O)=O` (centres undefined) as the compound, how does the Potency read?
A: inconclusive: 35.5 µM [inhibitor, single point]

Q: How did the Potency turn out when `O=Nc1c(-c2c(O)[nH]c3cc(Br)ccc23)[nH]c2ccccc12` was run?
A: active: 5.62 µM

Q: For `COc1ccc(C)cc1NC(=O)NC1CCCCCCC1`, which Potency is on record?
A: active: 22.4 µM

Q: With `COCCN1C=C(C(=O)OC)C(c2cc(Br)c(OC)c(OC)c2)C(C(=O)OC)=C1` as the compound, how does the “activity change, negative = inhibition” value read?
A: inactive: 150%

Q: How did the Potency turn out when `CN(C1CCCCC1)S(=O)(=O)c1ccc(NC(=S)NC(=O)c2cccs2)cc1` was run?
A: inconclusive: 17.8 µM [inhibitor, partial curve, poor fit]

Q: For `Cc1nnsc1SCCNC(=O)c1ccc(F)cc1`, which Potency is on record?
A: inconclusive: 5.01 µM [inhibitor, partial curve, poor fit]

Q: With `CCc1sc(C(=O)N2CCN(S(C)(=O)=O)CC2)cc1Br` as the compound, how does the Potency read?
A: inconclusive: 8.91 µM [inhibitor, single point]

Q: `CC(=O)Nc1ccc(S(=O)(=O)Nc2ccc(S(=O)(=O)N3CCCCCC3)cc2)cc1` was tested. Which Potency did it give?
A: active: 20 µM

Q: With `Cc1ccccc1C(=O)OC1OC(=O)C(Cl)=C1N1CCOCC1` (centres undefined) as the compound, how does the Potency read?
A: active: 2.82 µM

Q: With `COc1ccc(Cc2nnc(SCC(=O)N(C)CC(=O)Nc3ccc(C)cc3)o2)cc1` as the compound, how does the Potency read?
A: inconclusive: 35.5 µM [inhibitor, single point]

Q: `COc1ccc(C)cc1NC(=O)CSc1nc2ccccc2nc1N1CCCC1` was tested. Which Potency did it give?
A: inconclusive: 15.8 µM [inhibitor, partial curve, poor fit]

Q: For `CC(C(=O)Nc1ncc([N+](=O)[O-])s1)N1C(=O)c2ccccc2S1(=O)=O` (centres undefined), which Potency is on record?
A: inconclusive: 39.8 µM [inhibitor, single point]

Q: For `Cc1cc2ncc(-c3ncc(C(F)(F)F)cc3Cl)cn2n1`, which Potency is on record?
A: inconclusive: 6.31 µM [inhibitor, partial curve, poor fit]

Q: Which Potency does the source give for `COC(=O)/C=C1/SC(=NC(=O)c2cccc([N+](=O)[O-])c2)NC1=O` here?
A: inconclusive: 1.41 µM [inhibitor, full curve, poor fit]

Q: Which Potency does the source give for `O=[N+]([O-])c1ccccc1N/N=C\c1ccccc1Cl` here?
A: inconclusive: 6.31 µM [inhibitor, single point]

Q: With `Cc1ccnc(NC(=O)CNC(=O)c2ccccc2)c1` as the compound, how does the Potency read?
A: inconclusive: 39.8 µM [inhibitor, single point]

Q: For `CCOc1ccc(S(=O)(=O)NCCC(=O)N2CCCCCCC2)cc1`, which Potency is on record?
A: inconclusive: 35.5 µM [inhibitor, single point]

Q: Which “activity change, negative = inhibition” value does the source give for `COc1ccc(C)cc1N=Nc1ccc(O)c2ncccc12` here?
A: inactive: -9.56%

Q: Which Potency does the source give for `CCCCc1ccc(NC(=O)CSc2nc(=O)n(CCN(CC)CC)c3c2CCC3)cc1` here?
A: inconclusive: 39.8 µM [inhibitor, single point]

Q: How did the Potency turn out when `CCCCCC(=O)Nc1ccc(C(=O)CN2C(=O)NC3(CCCCCC3)C2=O)cc1` was run?
A: inconclusive: 17.8 µM [inhibitor, partial curve]

Q: Which Potency does the source give for `O=C(NNS(=O)(=O)c1ccc(Cl)cc1)c1cc(-c2ccccc2)n[nH]1` here?
A: inconclusive: 11.2 µM [inhibitor, partial curve]

Q: `N#C/C(=C/c1cccc(O)c1)C(=O)NCc1ccc(Cl)cc1` was tested. Which Potency did it give?
A: active: 20 µM

Q: For `COc1ccccc1NC(=O)C(C)OC(=O)COc1cccc2c1OC(C)(C)C2` (centres undefined), which Potency is on record?
A: inconclusive: 31.6 µM [inhibitor, single point]

Q: Which Potency does the source give for `Cc1cc(C)c2c(=O)n(CC(=O)Nc3ccc(Cl)cc3)sc2n1` here?
A: inconclusive: 39.8 µM [inhibitor, single point]

Q: For `C/C(=N\NC(=O)c1ccc(NS(=O)(=O)c2cccs2)cc1)c1ccc(O)cc1O`, which Potency is on record?
A: inconclusive: 7.08 µM [inhibitor, partial curve]

Q: For `O=c1c2ccccc2nc(COc2ccccc2)n1/N=C/c1ccc(O)cc1O`, which Potency is on record?
A: inconclusive: 11.2 µM [inhibitor, partial curve]

Q: For `N#Cc1cccc(C(=O)OCC(=O)N2CCCc3ccccc32)c1`, which Potency is on record?
A: inconclusive: 31.6 µM [inhibitor, single point]

Q: For `CCOC(=O)Cc1csc(NC(=O)Nc2ccc(C)cc2)n1`, which “activity change, negative = inhibition” value is on record?
A: inactive: -39.6%

Q: Which Potency does the source give for `Cc1cccc(CC2S/C(=N/N=C/c3ccco3)N(c3ccccc3)C2=O)c1` (centres undefined) here?
A: inconclusive: 35.5 µM [inhibitor, single point]

Q: `O=C(NC(NC(=S)Nc1ccccc1O)C(Cl)(Cl)Cl)c1ccco1` (centres undefined) was tested. Which Potency did it give?
A: inconclusive: 8.91 µM [inhibitor, full curve, poor fit]

Q: For `O=C1OC(CN2CCOCC2)CN1N=Cc1ccc([N+](=O)[O-])o1` (centres undefined), which “activity change, negative = inhibition” value is on record?
A: inactive: -3.16%
